Assay results: the supplement of paper PMC10126150
Sequences with one replicate were seen in a single cluster, so their values are uncertain.

System: ATP
Test: switch fluorescence ratio, 500 uM ATP over buffer (Cy3 cluster intensity, sum of 5 cycles each) (fold (ratio)); higher = stronger signal-on switching upon ATP binding; sequences stand for … in TCGTCGGCAGCGTCAGATGTGTATAAGAGACAGTTTTTTTTTTTTTTTTTTTTTTTTT…TC
Conditions: aptamer strand: ATP DNA aptamer (quencher-CACCTGGGGGAGTATTGCGGAGGAAGG + anchor), 100 nM annealed; ATP concentration: 500 uM; one replicate
How it was run: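 Five buffer/ATP imaging cycles were run on Cy3-labelled switching-strand clusters on a modified Illumina MiSeq flow-cell, with NaOH stripping and re-annealing between cycles. In each cycle, clusters annealed to 100 nM quencher-labelled ATP aptamer were imaged in selection buffer, then after 15 min with 500 uM ATP at 22 °C. Per cluster, the fluorescence ratio is summed target-cycle over summed buffer-cycle Cy3 intensity, averaged per switch-domain sequence. Only clusters within 100-1000 RFU were kept.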
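Note: ATP exposure 15 min at 22 °C before imaging.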

Row | Sequence | switch fluorescence ratio
1 | TTGCATAAAT | 0.977
2 | TTGCATAGG | 1.1
3 | TTGCATGATA | 1.03
4 | TTGCCAGCAT | 1.03
5 | TTGCCAGTTA | 1.04
6 | TTGCCATAGG | 1.02
7 | TTGCCATATG | 1.02
8 | TTGCCCTCGG | 1
9 | TTGCCCTGCA | 0.966
10 | TTGCCTATAT | 0.99
11 | TTGCGATAGC | 1.12
12 | TTGCGATGAA | 1.04
13 | TTGCGCGGTC | 2.07
14 | TTGCGTGGCG | 1.03
15 | TTGCGTGTAT | 1.01
16 | TTGCGTTATT | 1
17 | TTGCTCAGGT | 1.04
18 | TTGCTGACGA | 1.06
19 | TTGCTGTTAT | 1
20 | TTGCTTCGAC | 1.02
21 | TTGCTTTAGT | 1.02
22 | TTGGAACA | 1.09
23 | TTGGAACTGT | 1.05
24 | TTGGACCCGT | 0.996
25 | TTGGAGTAGG | 0.998
26 | TTGGAGTC | 0.902

Row | Sequence | switch fluorescence ratio
27 | TTGGATAGGA | 1.06
28 | TTGGATTGGA | 1.02
29 | TTGGCATCGC | 0.989
30 | TTGGCCGAAG | 1.01
31 | TTGGCCGACG | 1.05
32 | TTGGCCGAGA | 0.989
33 | TTGGCCTCGC | 1
34 | TTGGCCTGG | 0.965
35 | TTGGCGAGAG | 0.987
36 | TTGGCGGGT | 0.971
37 | TTGGCTACTC | 1.15
38 | TTGGCTCCCG | 0.949
39 | TTGGGACAGA | 1.02
40 | TTGGGAGAAC | 0.978
41 | TTGGGAGAGT | 0.979
42 | TTGGGCAC | 1.01
43 | TTGGGCTACA | 1.06
44 | TTGGGGG | 1.03
45 | TTGGGGTCG | 1
46 | TTGGTACACG | 1.02
47 | TTGGTACGA | 1.02
48 | TTGGTACGTA | 0.934
49 | TTGGTAGCGC | 0.986
50 | TTGGTCACCT | 1.05
51 | TTGGTCACTC | 0.973
52 | TTGGTCGACA | 0.997

Row | Sequence | switch fluorescence ratio
53 | TTGGTCGTTA | 1.02
54 | TTGGTCTGTC | 0.965
55 | TTGGTCTTCC | 1.96
56 | TTGGTTCGAT | 1.02
57 | TTGGTTCTTG | 1.01
58 | TTGTACACCA | 1.08
59 | TTGTAGGC | 1.01
60 | TTGTAGGGCG | 1.04
61 | TTGTATTGTC | 1.04
62 | TTGTCAGGAA | 0.972
63 | TTGTCAGGCG | 0.978
64 | TTGTCCGGGT | 1.04
65 | TTGTCCTGGT | 0.931
66 | TTGTCGT | 1
67 | TTGTCGTGGA | 0.99
68 | TTGTCTGCTT | 1
69 | TTGTCTTAAC | 0.986
70 | TTGTGAGATA | 0.959
71 | TTGTGCGACG | 0.944
72 | TTGTGCGGGC | 1.01
73 | TTGTGGGA | 0.999
74 | TTGTGGGAT | 1.04
75 | TTGTGTAAGT | 1.01
76 | TTGTGTGCTC | 0.996
77 | TTGTGTTAA | 0.948
78 | TTGTGTTGAA | 1.01

Row | Sequence | switch fluorescence ratio
79 | TTGTTGGACT | 0.948
80 | TTGTTTAATG | 0.962
81 | TTGTTTACGC | 0.957
82 | TTGTTTCCGG | 1.04
83 | TTTAAAACTG | 1
84 | TTTAAATGTA | 1.02
85 | TTTAACCAAA | 1.24
86 | TTTAACGACT | 1.03
87 | TTTAAGATTG | 0.948
88 | TTTAAGCAGC | 0.958
89 | TTTAAGGAT | 0.96
90 | TTTAAGGCGC | 1.02
91 | TTTAAGTCCG | 0.982
92 | TTTAATCACG | 1.03
93 | TTTACAAA | 1
94 | TTTACAGAAG | 1.03
95 | TTTACCAGAA | 1.05
96 | TTTACCATTC | 0.989
97 | TTTACGGAGT | 1.01
98 | TTTACGTCA | 1.09
99 | TTTACGTCCG | 1.07
100 | TTTACTGGGT | 1.01
101 | TTTACTTTAA | 1.1
